# Experimental data taken from the supplement of paper PMC8728848.
# Some of the results follow.
# Tests used:
# Assay in all cases: glycan array binding signal (z-score within array); higher = stronger binding
# Conditions in all cases: glycan notation: IUPAC condensed, linker removed
# [1] = target: Neu5Ac(a2-6)Gal(b1-4)GlcNAc(b1-3)Gal(b1-4)GlcNAc(b1-3)GalNAc
# Outline: (§1)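 The binding signal is a Z-score computed within each array. Data were drawn from 3228 arrays in the Consortium for Functional Glycomics database, restricted to those with a known protein sequence. Scores were averaged over arrays of the same protein sequence at different concentrations or buffers, and over linkers, and negative values can be taken as non-binding.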
# [2] = target: Neu5Ac(a2-6)Gal(b1-4)GlcNAc(b1-3)Gal(b1-4)GlcNAc(b1-3)[Neu5Ac(a2-6)Gal(b1-4)GlcNAc(b1-3)Gal(b1-4)GlcNAc(b1-6)]GalNAc
# Outline: as §1
# [3] = target: Neu5Ac(a2-6)Gal(b1-4)GlcNAc(b1-3)Gal(b1-4)GlcNAc(b1-6)[Gal(b1-3)]GalNAc
# Outline: as §1
# [4] = target: Neu5Ac(a2-6)Gal(b1-4)GlcNAc(b1-3)Gal(b1-4)[Fuc(a1-3)]GlcNAc(b1-3)Gal(b1-4)[Fuc(a1-3)]GlcNAc
# Outline: as §1
# [5] = target: Neu5Ac(a2-6)Gal(b1-4)GlcNAc(b1-3)GalNAc
# Outline: as §1
# [6] = target: Neu5Ac(a2-6)Gal(b1-4)GlcNAc(b1-3)[Neu5Ac(a2-6)Gal(b1-4)GlcNAc(b1-6)]GalNAc
# Outline: as §1
# [7] = target: Neu5Ac(a2-6)Gal(b1-4)GlcNAc(b1-6)GalNAc
# Outline: as §1
# [8] = target: Neu5Ac(a2-6)Gal(b1-4)GlcNAc(b1-6)[Gal(b1-3)GlcNAc(b1-3)]Gal(b1-4)Glc
# Outline: as §1
# [9] = target: Neu5Ac(a2-6)Gal(b1-4)GlcNAc(b1-6)[Gal(b1-3)]GalNAc
# Outline: as §1
# [10] = target: Neu5Ac(a2-6)Gal(b1-4)GlcNAc6S
# Outline: as §1
# Neu5Ac(a2-6)GalNAc = target: Neu5Ac(a2-6)GalNAc
# Outline: as §1
# [11] = target: Neu5Ac(a2-6)GalNAc(b1-4)GlcNAc
# Outline: as §1
# [12] = target: Neu5Ac(a2-6)GalNAc(b1-4)GlcNAc6S
# Outline: as §1
# [13] = target: Neu5Ac(a2-6)GlcNAc(b1-4)GlcNAc
# Outline: as §1
# [14] = target: Neu5Ac(a2-6)GlcNAc(b1-4)GlcNAc(b1-4)GlcNAc
# Outline: as §1
# Neu5Ac(a2-8)Neu5Ac = target: Neu5Ac(a2-8)Neu5Ac
# Outline: as §1
# [15] = target: Neu5Ac(a2-8)Neu5Ac(a2-3)Gal(b1-3)GalNAc(b1-4)[Neu5Ac(a2-3)]Gal(b1-4)Glc
# Outline: as §1
# [16] = target: Neu5Ac(a2-8)Neu5Ac(a2-3)Gal(b1-3)GalNAc(b1-4)[Neu5Ac(a2-8)Neu5Ac(a2-3)]Gal(b1-4)Glc
# Outline: as §1
# [17] = target: Neu5Ac(a2-8)Neu5Ac(a2-3)Gal(b1-4)Glc
# Outline: as §1
# [18] = target: Neu5Ac(a2-8)Neu5Ac(a2-3)Gal(b1-4)GlcNAc
# Outline: as §1
# [19] = target: Neu5Ac(a2-8)Neu5Ac(a2-3)[Gal(b1-3)GalNAc(b1-4)]Gal(b1-4)Glc
# Outline: as §1
# [20] = target: Neu5Ac(a2-8)Neu5Ac(a2-3)[GalNAc(b1-4)]Gal(b1-4)Glc
# Outline: as §1
# [21] = target: Neu5Ac(a2-8)Neu5Ac(a2-8)Neu5Ac
# Outline: as §1
# [22] = target: Neu5Ac(a2-8)Neu5Ac(a2-8)Neu5Ac(a2-3)Gal(b1-4)Glc
# Outline: as §1
# [23] = target: Neu5Ac(a2-8)Neu5Ac(a2-8)Neu5Ac(a2-3)[Gal(b1-3)GalNAc(b1-4)]Gal(b1-4)Glc
# Outline: as §1
# [24] = target: Neu5Ac(a2-8)Neu5Ac(a2-8)Neu5Ac(a2-3)[GalNAc(b1-4)]Gal(b1-4)Glc
# Outline: as §1
# [25] = target: Neu5Ac(a2-8)Neu5Ac(a2-8)Neu5Ac(a2-8)Neu5Ac(a2-3)[GalNAc(b1-4)]Gal(b1-4)Glc
# Outline: as §1
# [26] = target: Neu5Ac(a2-8)Neu5Gc(a2-3)Gal(b1-4)GlcNAc
# Outline: as §1
# [27] = target: Neu5Ac(b2-6)Gal(b1-4)GlcNAc
# Outline: as §1
# Neu5Ac(b2-6)GalNAc = target: Neu5Ac(b2-6)GalNAc
# Outline: as §1
# [28] = target: Neu5Ac9Ac(a2-3)Gal(b1-3)GlcNAc
# Outline: as §1
# [29] = target: Neu5Ac9Ac(a2-3)Gal(b1-4)GlcNAc
# Outline: as §1
# [30] = target: Neu5Ac9Ac(a2-6)Gal(b1-4)GlcNAc
# Outline: as §1
# [31] = target: Neu5Gc(a2-3)Gal(b1-3)GlcNAc
# Outline: as §1
# [32] = target: Neu5Gc(a2-3)Gal(b1-3)[Fuc(a1-4)]GlcNAc
# Outline: as §1
# Neu5Gc(a2-3)Gal(b1-4)Glc = target: Neu5Gc(a2-3)Gal(b1-4)Glc
# Outline: as §1
# [33] = target: Neu5Gc(a2-3)Gal(b1-4)GlcNAc
# Outline: as §1
# [34] = target: Neu5Gc(a2-3)Gal(b1-4)GlcNAc(b1-3)Gal(b1-4)GlcNAc(b1-2)Man(a1-3)[Neu5Gc(a2-3)Gal(b1-4)GlcNAc(b1-3)Gal(b1-4)GlcNAc(b1-2)Man(a1-6)]Man(b1-4)GlcNAc(b1-4)GlcNAc
# Outline: as §1
# [35] = target: Neu5Gc(a2-3)Gal(b1-4)[Fuc(a1-3)]GlcNAc
# Outline: as §1
# [36] = target: Neu5Gc(a2-6)Gal(b1-4)GlcNAc
# Outline: as §1
# Neu5Gc(a2-6)GalNAc = target: Neu5Gc(a2-6)GalNAc
# Outline: as §1
# [37] = target: Neu5Gc(a2-8)Neu5Ac(a2-3)Gal(b1-4)GlcNAc
# Outline: as §1
# [38] = target: Neu5Gc(a2-8)Neu5Gc(a2-3)Gal(b1-4)GlcNAc
# Outline: as §1
# [39] = target: Neu5Gc(a2-8)Neu5Gc(a2-3)Gal(b1-4)GlcNAc(b1-3)Gal(b1-4)GlcNAc
# Outline: as §1
# [40] = target: Neu5Gc(a2-8)Neu5Gc(a2-6)Gal(b1-4)GlcNAc
# Outline: as §1
# [41] = target: Neu5Gc(b2-6)Gal(b1-4)GlcNAc
# Outline: as §1
binder,measurement,setting,value
Clec49 (Caenorhabditis elegans) (protein) MTRLTLLLFGLLGAATAQTCNTGGIYNEQFNRCYQYFTAPAQFSFAEQQCNLLGGHLASVQNGQENALLQSNAANSFKRSNYSDYWIGATDLETSGTWKWTDPSVTFDYSNWQLGEPQSGSDCAIQDKGDGTWSAIGCTSYRPYVCVTPVIMTATCPPITTPIPTTCPTPAPCPIKQCVPSCDQGWTYFSPTDFCYRVYHGEKFNDAEASCVLLGGHLASIHSLTENTFVNNIASCGIKEGKYEHLAWIGMRKVGQDWVWTDGTPSDYFNWAPKQPDNPKKELCVQTAPDLSHDKWYENWNNLECNEVMRAYICKKASIHN,glycan array binding signal (z-score),[1],-0.163
same,glycan array binding signal (z-score),[2],2.58
same,glycan array binding signal (z-score),[3],-0.105
same,glycan array binding signal (z-score),[4],0.181
same,glycan array binding signal (z-score),[5],-0.179
same,glycan array binding signal (z-score),[6],0.359
same,glycan array binding signal (z-score),[7],0.441
same,glycan array binding signal (z-score),[8],-0.304
same,glycan array binding signal (z-score),[9],-0.327
same,glycan array binding signal (z-score),[10],-0.845
same,glycan array binding signal (z-score),Neu5Ac(a2-6)GalNAc,-0.418
same,glycan array binding signal (z-score),[11],-0.566
same,glycan array binding signal (z-score),[12],0.538
same,glycan array binding signal (z-score),[13],0.25
same,glycan array binding signal (z-score),[14],0.16
same,glycan array binding signal (z-score),Neu5Ac(a2-8)Neu5Ac,-0.576
same,glycan array binding signal (z-score),[15],-0.084
same,glycan array binding signal (z-score),[16],0.324
same,glycan array binding signal (z-score),[17],-0.326
same,glycan array binding signal (z-score),[18],-0.339
same,glycan array binding signal (z-score),[19],-0.06
same,glycan array binding signal (z-score),[20],-0.424
same,glycan array binding signal (z-score),[21],-0.48
same,glycan array binding signal (z-score),[22],0.106
same,glycan array binding signal (z-score),[23],-0.077
same,glycan array binding signal (z-score),[24],0.055
same,glycan array binding signal (z-score),[25],-0.218
same,glycan array binding signal (z-score),[26],-0.059
same,glycan array binding signal (z-score),[27],-0.552
same,glycan array binding signal (z-score),Neu5Ac(b2-6)GalNAc,-0.483
same,glycan array binding signal (z-score),[28],0.178
same,glycan array binding signal (z-score),[29],-0.776
same,glycan array binding signal (z-score),[30],-0.201
same,glycan array binding signal (z-score),[31],-0.463
same,glycan array binding signal (z-score),[32],-0.422
same,glycan array binding signal (z-score),Neu5Gc(a2-3)Gal(b1-4)Glc,-0.481
same,glycan array binding signal (z-score),[33],-0.612
same,glycan array binding signal (z-score),[34],-0.103
same,glycan array binding signal (z-score),[35],0.229
same,glycan array binding signal (z-score),[36],0.43
same,glycan array binding signal (z-score),Neu5Gc(a2-6)GalNAc,0.335
same,glycan array binding signal (z-score),[37],-0.378
same,glycan array binding signal (z-score),[38],-0.037
same,glycan array binding signal (z-score),[39],-0.895
same,glycan array binding signal (z-score),[40],0.405
same,glycan array binding signal (z-score),[41],0.241
